From the supplement of paper PMC9151546
Single values are uncertain, as repeats are few or missing.

Columns and labels:
CHO-K1 [1] = experiment: hypodiploid nuclei frequency (% of nucleated events); higher = more hypodiploid events (aneugenic)
CHO-K1 [2] = experiment: relative survival (nuclei to bead ratio vs DMSO control) (% of vehicle control); higher = more surviving cells
CHO-K1 [3] = experiment: micronucleus frequency (% of nucleated events); higher = more micronuclei (genotoxic)
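For hypodiploid nuclei frequency (% of nucleated events) in this document: hypodiploid nuclei gated on a flow cytometer with 488 nm excitation after SYTOX Green staining, cultures at 37 °C, positive controls vinblastine without S9 and cyclophosphamide with S9.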
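For micronucleus frequency (% of nucleated events) in this document: cells lysed with nuclei stained by SYTOX Green, then micronucleus-gated events counted against nucleated events by flow cytometry with 488 nm excitation.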
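For relative survival (nuclei to bead ratio vs DMSO control) in this document: Lysed-cell nuclei stained with SYTOX Green and counted against counting beads by flow cytometry at 488 nm excitation, with vinblastine (no S9) and cyclophosphamide (plus S9) as positive controls.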

Cl[C@H]1[C@H](Cl)[C@@H](Cl)[C@H](Cl)[C@@H](Cl)[C@@H]1Cl [beta-Hexachlorocyclohexane]
Settings	hypodiploid nuclei frequency, CHO-K1 [1] [%]	micronucleus frequency, CHO-K1 [3] [%]	relative survival, CHO-K1 [2]
concentration: 4.5 (µM), S9 metabolic activation: with S9, exposure time: 3-4 hours	0.22	1.52	152
concentration: 4.5 (µM), S9 metabolic activation: without S9, exposure time: 24 hours	0.42	1.82	135
concentration: 5.63 (µM), S9 metabolic activation: with S9, exposure time: 3-4 hours	0.2	1.08	138
concentration: 5.63 (µM), S9 metabolic activation: without S9, exposure time: 24 hours	0.66	3.68	110
concentration: 7.04 (µM), S9 metabolic activation: with S9, exposure time: 3-4 hours	0.28	1.12	118
concentration: 7.04 (µM), S9 metabolic activation: without S9, exposure time: 24 hours	0.7	2.9	116
concentration: 8.8 (µM), S9 metabolic activation: with S9, exposure time: 3-4 hours	0.26	1.4	140
concentration: 8.8 (µM), S9 metabolic activation: without S9, exposure time: 24 hours	0.44	2.36	108
concentration: 11 (µM), S9 metabolic activation: with S9, exposure time: 3-4 hours	0.18	1.38	158
concentration: 11 (µM), S9 metabolic activation: without S9, exposure time: 24 hours	0.64	2.26	130
concentration: 13.7 (µM), S9 metabolic activation: with S9, exposure time: 3-4 hours	0.26	1.58	149
concentration: 13.7 (µM), S9 metabolic activation: without S9, exposure time: 24 hours	0.8	2.46	104
concentration: 17.2 (µM), S9 metabolic activation: with S9, exposure time: 3-4 hours	0.16	2.04	149
concentration: 17.2 (µM), S9 metabolic activation: without S9, exposure time: 24 hours	0.44	2.76	103
concentration: 21.5 (µM), S9 metabolic activation: with S9, exposure time: 3-4 hours	0.16	1.1	130
concentration: 21.5 (µM), S9 metabolic activation: without S9, exposure time: 24 hours	0.7	2.26	101
concentration: 26.8 (µM), S9 metabolic activation: with S9, exposure time: 3-4 hours	0.3	1.34	230
concentration: 26.8 (µM), S9 metabolic activation: without S9, exposure time: 24 hours	0.92	0.94	160
concentration: 33.6 (µM), S9 metabolic activation: with S9, exposure time: 3-4 hours	0.24	1.34	159
concentration: 33.6 (µM), S9 metabolic activation: without S9, exposure time: 24 hours	0.76	1.56	135
concentration: 41.9 (µM), S9 metabolic activation: with S9, exposure time: 3-4 hours	0.16	1.86	156
concentration: 41.9 (µM), S9 metabolic activation: without S9, exposure time: 24 hours	0.54	1.52	128
concentration: 52.4 (µM), S9 metabolic activation: with S9, exposure time: 3-4 hours	0.22	1.26	133
concentration: 52.4 (µM), S9 metabolic activation: without S9, exposure time: 24 hours	0.46	1.68	124
concentration: 65.5 (µM), S9 metabolic activation: with S9, exposure time: 3-4 hours	0.22	1.82	124
concentration: 65.5 (µM), S9 metabolic activation: without S9, exposure time: 24 hours	1.12	1.84	98.6
concentration: 81.9 (µM), S9 metabolic activation: with S9, exposure time: 3-4 hours	0.38	1.66	144
concentration: 81.9 (µM), S9 metabolic activation: without S9, exposure time: 24 hours	1.16	2.18	130
concentration: 102 (µM), S9 metabolic activation: with S9, exposure time: 3-4 hours	0.3	1.74	158
concentration: 102 (µM), S9 metabolic activation: without S9, exposure time: 24 hours	0.8	1.76	101
concentration: 128 (µM), S9 metabolic activation: with S9, exposure time: 3-4 hours	0.26	1.78	137
concentration: 128 (µM), S9 metabolic activation: without S9, exposure time: 24 hours	0.9	1.96	125
concentration: 160 (µM), S9 metabolic activation: with S9, exposure time: 3-4 hours	0.32	1.62	136
concentration: 160 (µM), S9 metabolic activation: without S9, exposure time: 24 hours	0.94	2.64	97.4
concentration: 200 (µM), S9 metabolic activation: with S9, exposure time: 3-4 hours	0.28	1.28	117
concentration: 200 (µM), S9 metabolic activation: without S9, exposure time: 24 hours	1.26	1.8	94.6

CCCCOC(=O)c1ccccc1C(=O)OCc1ccccc1 [Butyl benzyl phthalate]
Settings	hypodiploid nuclei frequency, CHO-K1 [1] [%]	micronucleus frequency, CHO-K1 [3] [%]	relative survival, CHO-K1 [2]
concentration: 4.59 (µM), S9 metabolic activation: with S9, exposure time: 3-4 hours	0.22	1.22	83.9
concentration: 4.59 (µM), S9 metabolic activation: without S9, exposure time: 24 hours	0.84	1.4	102
concentration: 5.74 (µM), S9 metabolic activation: with S9, exposure time: 3-4 hours	0.22	1.82	85.6
concentration: 5.74 (µM), S9 metabolic activation: without S9, exposure time: 24 hours	0.98	2.14	109
concentration: 7.18 (µM), S9 metabolic activation: with S9, exposure time: 3-4 hours	0.44	2.72	82
concentration: 7.18 (µM), S9 metabolic activation: without S9, exposure time: 24 hours	0.96	2.18	100
concentration: 8.97 (µM), S9 metabolic activation: with S9, exposure time: 3-4 hours	0.18	1.16	83
concentration: 8.97 (µM), S9 metabolic activation: without S9, exposure time: 24 hours	0.8	1.44	102
concentration: 11.2 (µM), S9 metabolic activation: with S9, exposure time: 3-4 hours	0.18	1.48	83.2
concentration: 11.2 (µM), S9 metabolic activation: without S9, exposure time: 24 hours	0.74	1.56	108
concentration: 14 (µM), S9 metabolic activation: with S9, exposure time: 3-4 hours	0.38	1.88	71.4
concentration: 14 (µM), S9 metabolic activation: without S9, exposure time: 24 hours	0.78	1.62	98.4
concentration: 17.5 (µM), S9 metabolic activation: with S9, exposure time: 3-4 hours	0.28	1.66	74.8
concentration: 17.5 (µM), S9 metabolic activation: without S9, exposure time: 24 hours	0.66	1.38	79.7
concentration: 21.9 (µM), S9 metabolic activation: with S9, exposure time: 3-4 hours	0.3	2.6	85.4
concentration: 21.9 (µM), S9 metabolic activation: without S9, exposure time: 24 hours	0.76	2.1	98.4
concentration: 27.4 (µM), S9 metabolic activation: with S9, exposure time: 3-4 hours	0.3	0.94	89.2
concentration: 27.4 (µM), S9 metabolic activation: without S9, exposure time: 24 hours	1.48	0.8	114
concentration: 34.2 (µM), S9 metabolic activation: with S9, exposure time: 3-4 hours	0.34	0.98	78.2
concentration: 34.2 (µM), S9 metabolic activation: without S9, exposure time: 24 hours	1.16	1.28	126
concentration: 42.8 (µM), S9 metabolic activation: with S9, exposure time: 3-4 hours	0.24	1.22	104
concentration: 42.8 (µM), S9 metabolic activation: without S9, exposure time: 24 hours	0.98	1.12	106
concentration: 53.5 (µM), S9 metabolic activation: with S9, exposure time: 3-4 hours	0.34	0.82	96.8
concentration: 53.5 (µM), S9 metabolic activation: without S9, exposure time: 24 hours	0.72	1.36	103
concentration: 66.8 (µM), S9 metabolic activation: with S9, exposure time: 3-4 hours	0.48	2.1	110
concentration: 66.8 (µM), S9 metabolic activation: without S9, exposure time: 24 hours	0.92	2.34	102
concentration: 83.6 (µM), S9 metabolic activation: with S9, exposure time: 3-4 hours	0.24	1.02	82.6
concentration: 83.6 (µM), S9 metabolic activation: without S9, exposure time: 24 hours	0.6	1.1	93.5
concentration: 104 (µM), S9 metabolic activation: with S9, exposure time: 3-4 hours	0.18	1.24	95.7
concentration: 104 (µM), S9 metabolic activation: without S9, exposure time: 24 hours	0.98	1.78	79.9
concentration: 131 (µM), S9 metabolic activation: with S9, exposure time: 3-4 hours	0.28	1.54	100
concentration: 131 (µM), S9 metabolic activation: without S9, exposure time: 24 hours	0.8	0.94	75
concentration: 163 (µM), S9 metabolic activation: with S9, exposure time: 3-4 hours	0.22	1.8	99.5
concentration: 163 (µM), S9 metabolic activation: without S9, exposure time: 24 hours	1.12	1.4	77.4
concentration: 204 (µM), S9 metabolic activation: with S9, exposure time: 3-4 hours	0.4	1.96	84.8
concentration: 204 (µM), S9 metabolic activation: without S9, exposure time: 24 hours	0.96	1.82	61.1

ClC1=C(Cl)C2(Cl)C3C(Cl)C(Cl)CC3C1(Cl)C2(Cl)Cl (stereo unspecified) [Chlordane]
Settings	hypodiploid nuclei frequency, CHO-K1 [1] [%]	micronucleus frequency, CHO-K1 [3] [%]	relative survival, CHO-K1 [2]
concentration: 4.5 (µM), S9 metabolic activation: with S9, exposure time: 3-4 hours	0.08	1.42	99
concentration: 4.5 (µM), S9 metabolic activation: without S9, exposure time: 24 hours	0.64	2.04	89.9
concentration: 5.63 (µM), S9 metabolic activation: with S9, exposure time: 3-4 hours	0.24	1.22	98.2
concentration: 5.63 (µM), S9 metabolic activation: without S9, exposure time: 24 hours	0.54	2.16	80.5
concentration: 7.04 (µM), S9 metabolic activation: with S9, exposure time: 3-4 hours	0.2	1.44	85
concentration: 7.04 (µM), S9 metabolic activation: without S9, exposure time: 24 hours	0.8	1.94	76.3
concentration: 8.8 (µM), S9 metabolic activation: with S9, exposure time: 3-4 hours	0.16	1.24	89.7
concentration: 8.8 (µM), S9 metabolic activation: without S9, exposure time: 24 hours	0.7	1.54	82.1
concentration: 11 (µM), S9 metabolic activation: with S9, exposure time: 3-4 hours	0.26	1.64	77.7
concentration: 11 (µM), S9 metabolic activation: without S9, exposure time: 24 hours	0.8	2.1	66.3
concentration: 13.7 (µM), S9 metabolic activation: with S9, exposure time: 3-4 hours	0.2	1.44	83.3
concentration: 13.7 (µM), S9 metabolic activation: without S9, exposure time: 24 hours	1.08	1.9	88.5
concentration: 17.2 (µM), S9 metabolic activation: with S9, exposure time: 3-4 hours	0.23	1.1	63.8
concentration: 17.2 (µM), S9 metabolic activation: without S9, exposure time: 24 hours	0.82	2.06	66.8
concentration: 21.5 (µM), S9 metabolic activation: with S9, exposure time: 3-4 hours	0.54	2.06	77.1
concentration: 21.5 (µM), S9 metabolic activation: without S9, exposure time: 24 hours	0.8	2.38	77
concentration: 26.8 (µM), S9 metabolic activation: with S9, exposure time: 3-4 hours	0.06	1.14	112
concentration: 26.8 (µM), S9 metabolic activation: without S9, exposure time: 24 hours	0.5	1.92	79.7
concentration: 33.6 (µM), S9 metabolic activation: with S9, exposure time: 3-4 hours	0.12	1.9	104
concentration: 33.6 (µM), S9 metabolic activation: without S9, exposure time: 24 hours	0.76	1.9	82.1
concentration: 41.9 (µM), S9 metabolic activation: with S9, exposure time: 3-4 hours	0.12	1.14	97
concentration: 41.9 (µM), S9 metabolic activation: without S9, exposure time: 24 hours	0.88	1.92	64.1
concentration: 52.4 (µM), S9 metabolic activation: with S9, exposure time: 3-4 hours	0.14	0.86	108
concentration: 52.4 (µM), S9 metabolic activation: without S9, exposure time: 24 hours	1	2.4	80.9
concentration: 65.5 (µM), S9 metabolic activation: with S9, exposure time: 3-4 hours	0.26	1.1	69.9
concentration: 65.5 (µM), S9 metabolic activation: without S9, exposure time: 24 hours	1.48	2.34	57.9
concentration: 81.9 (µM), S9 metabolic activation: with S9, exposure time: 3-4 hours	0.19	0.93	63.4
concentration: 81.9 (µM), S9 metabolic activation: without S9, exposure time: 24 hours	1.94	2.22	50.6
concentration: 102 (µM), S9 metabolic activation: with S9, exposure time: 3-4 hours	0.3	0.99	51.2
concentration: 102 (µM), S9 metabolic activation: without S9, exposure time: 24 hours	1.32	2.52	44.7
concentration: 128 (µM), S9 metabolic activation: with S9, exposure time: 3-4 hours	0.41	1.94	46.6
concentration: 160 (µM), S9 metabolic activation: with S9, exposure time: 3-4 hours	–	–	38
concentration: 200 (µM), S9 metabolic activation: with S9, exposure time: 3-4 hours	–	–	16
